This is one part of the list.

Our source for the binding signal values is publication PMC12820563, “FoxP3 forms a head-to-head dimer in vivo and stabilizes its multimerization on adjacent microsatellites”.

In this assay the target is T1, MBP-FoxP1dN (Mus musculus, UniProt P58462 326-579).
T1 sequence: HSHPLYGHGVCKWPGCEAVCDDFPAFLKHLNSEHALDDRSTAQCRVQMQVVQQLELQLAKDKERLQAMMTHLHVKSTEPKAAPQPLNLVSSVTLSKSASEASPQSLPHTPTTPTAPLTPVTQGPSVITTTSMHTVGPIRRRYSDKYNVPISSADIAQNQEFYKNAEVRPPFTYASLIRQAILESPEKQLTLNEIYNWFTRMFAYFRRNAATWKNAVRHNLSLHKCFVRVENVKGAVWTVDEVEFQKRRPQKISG
Briefly: PD-seq (MBP pull-down with sequencing); 20 mM Tris-HCl pH 7.5, 100 mM NaCl, 1.5 mM MgCl2, 0.4 uM protein, 0.1 uM dsDNA library, 30 min, room temperature, amylose pull-down; high values mean tight binding. The conditions noted are these: protein: recombinant; tags: His6-MBP; chain copies: 2; dsDNA, one strand shown. The method in brief:
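E. coli-expressed mouse FoxP3 or FoxP1 fragment, N-terminus removed and tagged with His6-MBP, was used at 0.4 µM against 0.1 µM of a Klenow-filled degenerate double-stranded DNA library. After 30 min at room temperature in Tris pH 7.5 buffer with NaCl and MgCl2, complexes were pulled down on amylose resin and washed three times. Binding is pull-down over input reads-per-million enrichment from pooled replicates of the proteinase K-released, PCR-barcoded, Illumina-sequenced DNA.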
Regarding “GATGATTGTTCTCCCAGCTGATGAATTGGCCATATCGAGTAAACAAATTTTCCTAATCTTTCTGTTCAAGCGCCATCTAC”, the binding signal is 0.87 RPM ratio (pull-down/input).
The value for “GATGATTGTTCTCCCAGCTGATGAATTCGAGTCTTCGAGTAAACAAATTTTCCTAATCTTTCTGTTCAAGCGCCATCTAC” was 0.874 RPM ratio (pull-down/input); that for “GATGATTGTTCTCCCAGCTGATGAATTCCGTCTATCGAGTAAACAAATTTTCCTAATCTTTCTGTTCAAGCGCCATCTAC” was 0.859 RPM ratio (pull-down/input).
The value for “GATGATTGTTCTCCCAGCTGATGAATTGACTTTTTCGAGTAAACAAATTTTCCTAATCTTTCTGTTCAAGCGCCATCTAC” was 1.09 RPM ratio (pull-down/input).
The value for “GATGATTGTTCTCCCAGCTGATGAATTATGACCTTCGAGTAAACAAATTTTCCTAATCTTTCTGTTCAAGCGCCATCTAC” was 0.925 RPM ratio (pull-down/input); that for “GATGATTGTTCTCCCAGCTGATGAATTCGTGACCTCGAGTAAACAAATTTTCCTAATCTTTCTGTTCAAGCGCCATCTAC” was 0.802 RPM ratio (pull-down/input).
“GATGATTGTTCTCCCAGCTGATGAATTCTTTCGTTCGAGTAAACAAATTTTCCTAATCTTTCTGTTCAAGCGCCATCTAC”: the binding signal was 0.894 RPM ratio (pull-down/input).
Under “GATGATTGTTCTCCCAGCTGATGAATTGCTCGACTCGAGTAAACAAATTTTCCTAATCTTTCTGTTCAAGCGCCATCTAC” stands 0.946 RPM ratio (pull-down/input).
Under “GATGATTGTTCTCCCAGCTGATGAATTTTCGGCATCGAGTAAACAAATTTTCCTAATCTTTCTGTTCAAGCGCCATCTAC” stands 1.1 RPM ratio (pull-down/input); under “GATGATTGTTCTCCCAGCTGATGAATTGCGATAGTCGAGTAAACAAATTTTCCTAATCTTTCTGTTCAAGCGCCATCTAC”, 1.05 RPM ratio (pull-down/input).
“GATGATTGTTCTCCCAGCTGATGAATTCTTAATGTCGAGTAAACAAATTTTCCTAATCTTTCTGTTCAAGCGCCATCTAC”: the binding signal is 1.21 RPM ratio (pull-down/input).
The value for “GATGATTGTTCTCCCAGCTGATGAATTCACCTCATCGAGTAAACAAATTTTCCTAATCTTTCTGTTCAAGCGCCATCTAC” was 0.832 RPM ratio (pull-down/input); that for “GATGATTGTTCTCCCAGCTGATGAATTTAACCACTCGAGTAAACAAATTTTCCTAATCTTTCTGTTCAAGCGCCATCTAC” was 0.966 RPM ratio (pull-down/input).
Take “GATGATTGTTCTCCCAGCTGATGAATTACCTATATCGAGTAAACAAATTTTCCTAATCTTTCTGTTCAAGCGCCATCTAC”: the binding signal was 1.08 RPM ratio (pull-down/input).
Under “GATGATTGTTCTCCCAGCTGATGAATTTGCATGGTCGAGTAAACAAATTTTCCTAATCTTTCTGTTCAAGCGCCATCTAC” stands 1.02 RPM ratio (pull-down/input); under “GATGATTGTTCTCCCAGCTGATGAATTCCGTGGCTCGAGTAAACAAATTTTCCTAATCTTTCTGTTCAAGCGCCATCTAC”, 0.767 RPM ratio (pull-down/input); under “GATGATTGTTCTCCCAGCTGATGAATTTATAACGTCGAGTAAACAAATTTTCCTAATCTTTCTGTTCAAGCGCCATCTAC”, 1.14 RPM ratio (pull-down/input).
Regarding “GATGATTGTTCTCCCAGCTGATGAATTCAGGGCCTCGAGTAAACAAATTTTCCTAATCTTTCTGTTCAAGCGCCATCTAC”, the binding signal was 0.863 RPM ratio (pull-down/input).
Take “GATGATTGTTCTCCCAGCTGATGAATTCACACCTTCGAGTAAACAAATTTTCCTAATCTTTCTGTTCAAGCGCCATCTAC”: the binding signal was 0.864 RPM ratio (pull-down/input).
As for “GATGATTGTTCTCCCAGCTGATGAATTCACTGGCTCGAGTAAACAAATTTTCCTAATCTTTCTGTTCAAGCGCCATCTAC”, the binding signal was 0.81 RPM ratio (pull-down/input).
Under “GATGATTGTTCTCCCAGCTGATGAATTAGCCGGATCGAGTAAACAAATTTTCCTAATCTTTCTGTTCAAGCGCCATCTAC” stands 0.832 RPM ratio (pull-down/input).
The value for “GATGATTGTTCTCCCAGCTGATGAATTACGGCAATCGAGTAAACAAATTTTCCTAATCTTTCTGTTCAAGCGCCATCTAC” was 1.13 RPM ratio (pull-down/input).
Under “GATGATTGTTCTCCCAGCTGATGAATTTCACTAGTCGAGTAAACAAATTTTCCTAATCTTTCTGTTCAAGCGCCATCTAC” stands 0.76 RPM ratio (pull-down/input).
Consider “GATGATTGTTCTCCCAGCTGATGAATTACTAGGGTCGAGTAAACAAATTTTCCTAATCTTTCTGTTCAAGCGCCATCTAC”, for which the binding signal was 0.919 RPM ratio (pull-down/input).
Under “GATGATTGTTCTCCCAGCTGATGAATTTGGCCCCTCGAGTAAACAAATTTTCCTAATCTTTCTGTTCAAGCGCCATCTAC” stands 0.832 RPM ratio (pull-down/input); under “GATGATTGTTCTCCCAGCTGATGAATTTTGAATATCGAGTAAACAAATTTTCCTAATCTTTCTGTTCAAGCGCCATCTAC”, 1.07 RPM ratio (pull-down/input).
The value for “GATGATTGTTCTCCCAGCTGATGAATTGATGTCATCGAGTAAACAAATTTTCCTAATCTTTCTGTTCAAGCGCCATCTAC” was 1.47 RPM ratio (pull-down/input); that for “GATGATTGTTCTCCCAGCTGATGAATTATCTAATTCGAGTAAACAAATTTTCCTAATCTTTCTGTTCAAGCGCCATCTAC” was 1.06 RPM ratio (pull-down/input).
Under “GATGATTGTTCTCCCAGCTGATGAATTAGGGTCCTCGAGTAAACAAATTTTCCTAATCTTTCTGTTCAAGCGCCATCTAC” stands 0.785 RPM ratio (pull-down/input); under “GATGATTGTTCTCCCAGCTGATGAATTTCTCTAATCGAGTAAACAAATTTTCCTAATCTTTCTGTTCAAGCGCCATCTAC”, 1.09 RPM ratio (pull-down/input).
For “GATGATTGTTCTCCCAGCTGATGAATTATTCTCTTCGAGTAAACAAATTTTCCTAATCTTTCTGTTCAAGCGCCATCTAC”, the binding signal was 1.14 RPM ratio (pull-down/input).
